# According to PubChem BioAssay AID485344 (National Center for Advancing Translational Sciences (NCATS), 2010):
# The whole screen tested about 340,000 compounds, of which about 6,900 (2%) were called active. No stated cut-off is given here; in the data, active means inhibition above about 30%; inactive means below that, where a call was filed. Only a part is listed here, and it is no random draw. Entries without a call were filed so in the source.
# Target: D(2) dopamine receptor (Homo sapiens) (UniProt P14416)
# Chain of UniProt P14416 (P14416 whole entry, looked up): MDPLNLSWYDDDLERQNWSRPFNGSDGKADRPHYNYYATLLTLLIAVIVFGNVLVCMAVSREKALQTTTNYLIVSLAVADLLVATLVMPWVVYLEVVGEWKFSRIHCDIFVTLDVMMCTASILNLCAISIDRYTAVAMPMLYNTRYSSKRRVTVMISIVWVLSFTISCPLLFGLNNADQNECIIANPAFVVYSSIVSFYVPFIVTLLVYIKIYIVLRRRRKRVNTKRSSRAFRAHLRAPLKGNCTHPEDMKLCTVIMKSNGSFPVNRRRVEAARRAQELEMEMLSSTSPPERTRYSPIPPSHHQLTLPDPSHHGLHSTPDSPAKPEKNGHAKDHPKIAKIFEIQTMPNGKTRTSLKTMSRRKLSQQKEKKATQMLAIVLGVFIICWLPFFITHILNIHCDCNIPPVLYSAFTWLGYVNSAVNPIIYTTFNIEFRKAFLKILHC
# Assay: HTS Assay for Allosteric Antagonists of the Human D2 Dopamine Receptor: Primary Screen for Antagonists; further: 0% is about no effect
# Details: HEK293 TREx D2 cells, calcium flux, dopamine EC80; at 10 µM; stronger effect = higher value
# How it was run: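 Tetracycline-induced HEK293 TREx cells expressing D2 receptor forced-coupled to calcium signalling, loaded with no-wash calcium dye. Compounds added and calcium flux read 180 s, then dopamine added at EC80 and read a further 180 s.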
row,Compound,inhibition
1,CC(Oc1ccc2ccc(=O)oc2c1)C(=O)NC(Cc1c[nH]c2ccc(O)cc12)C(=O)O (stereo not given),active: 43.8%
2,COc1ccccc1N1CCN(S(=O)(=O)c2c(C)sc3ncn(CC(=O)NCCN(C)C)c(=O)c23)CC1,9.31%
3,COc1ccc(OC)c(NC(=O)CSC2=Nc3ccccc3C3=NC(CCC(=O)NCCc4ccccc4)C(=O)N23)c1 (stereo not given),-22.3%
4,CCc1ccc(N2C(=O)N(CC(=O)C(C)(C)C)c3ccccc3S2(=O)=O)cc1,6.53%
5,Cc1ccc(-c2nnc(Nc3cccc(Br)c3)c3ccccc23)cc1S(=O)(=O)NCC1CCCO1 (stereo not given),-9.72%
6,Cc1ccc(NC(=O)CCCn2nc(C)c3sc4ccccc4c3c2=O)c(Cl)c1,-1.67%
7,CCC(C(=O)Nc1cccc(C#N)c1)n1nc(-c2ccccc2)ccc1=O (stereo not given),-1.14%
8,COC(=O)c1ccc(/C=C/c2c(-c3ccc(OC)cc3)oc3ccccc23)cc1,active: 47%
9,O=C(c1ccc2c(c1)N(Cc1ccc(Cl)cc1)C(=O)c1ccccc1S2(=O)=O)N1CCc2ccccc21,10.3%
10,O=C(NCc1ccc(F)cc1)C(=O)NCC(c1ccco1)S(=O)(=O)c1cccs1 (stereo not given),-9.16%
11,CCN(CC(=O)Nc1cc(Cl)ccc1C)C(=O)CCOc1ccccc1C,active: 31.2%
12,CCOc1ccc(C2C(=O)N(C3CCCCCC3)CC(=O)N2CCc2ccc(Cl)cc2)cc1OC (stereo not given),10%
13,O=C(Cn1ccc2cc(S(=O)(=O)N3CCCC3)ccc21)NCc1ccccc1Cl,8.02%
14,CCN1c2ccccc2-c2nc(SCC(=O)Nc3cc(F)ccc3F)ncc2S1(=O)=O,-6.3%
15,O=C(NC1CCCC1)c1cc(-c2ccccc2O)on1,active: 47.5%
16,CCOc1ccc(NC(=O)CCNS(=O)(=O)c2cccc3nsnc23)cc1,-3.06%
17,CCc1c(C(C)S(=O)(=O)c2ccccc2)[nH]c(=O)n1CC (stereo not given),active: 34.6%
18,CCc1cccc(C)c1NC(=O)C(CC)Sc1nncn2c1cc1occc12 (stereo not given),7.29%
19,CCS(=O)(=O)N1CCc2cc(C(=O)Nc3cc(OC)c(Cl)cc3OC)ccc21,17.8%
20,COc1ccc(NC(=O)c2oc3ccccc3c2NC(=O)COc2ccc(F)cc2)c(OC)c1,11.3%

row,Compound,inhibition
1,Cc1ccc(NC(=O)Cn2cc(C(=O)C3CCCCC3)c3ccccc32)c(C)c1,6.51%
2,Cc1cccc(C(=O)Nc2nnc(S(=O)(=O)N3CCCc4ccccc43)s2)c1,-19.6%
3,CCOC(=O)c1c(C)n(-c2ccccc2)c2ccc(OC(=O)c3cc(OC)cc(OC)c3)cc12,0.427%
4,CCc1ccc(NC(=O)c2cc(C)nn2-c2ccccc2)cc1,-14%
5,CCOC(=O)c1c(C)[nH]c(C)c1S(=O)(=O)NCC1CCN(Cc2ccccc2OC)CC1,active: 32.9%
6,CCOC(=O)c1c(NC(=O)c2cc3ccccc3c(=O)o2)sc2c1CCC(C(C)(C)C)C2 (stereo not given),-9.4%
7,Cc1cc(=O)n(CC(=O)NC(C)c2ccccc2)c2c1c(C)nn2C (stereo not given),-3.53%
8,CCOc1cc2[nH]c(=S)n(Cc3ccc(C(=O)NCCN(CC)CC)cc3)c(=O)c2cc1OCC,active: 49.7%
9,CCC1ON(c2ccccc2)C2c3nc4ccccc4n3CC12 (stereo not given),active: 36.2%
10,Cc1cccc(CN2C(=O)c3ccccc3Sc3ccc(C(=O)NCc4cccs4)cc32)c1,-9.47%
11,CCOC(=O)N1CCc2c(sc3c2c(=O)n(-c2ccc(F)cc2)c(=O)n3CC(=O)c2ccccc2)C1,-22.1%
12,O=C(NCCc1ccccc1)C1COc2ccccc2C1 (stereo not given),19.1%
13,CC(C)c1ccc(S(=O)(=O)c2cnc(SCC(=O)Nc3ccc(F)cc3F)nc2N)cc1,2.53%
14,Cc1ccc(-n2nc3c(N4CCC(C(=O)NCCC(C)C)CC4)nnc(C)c3c2C)cc1,2.94%
15,O=C(CN1CCN(c2ccc(Cl)cc2)CC1)Nc1ccc(F)c(F)c1,-13.2%
16,O=C(Cn1nnnc1-c1ccccc1F)Nc1ccc(F)c(F)c1,-7.77%
17,CCC(=O)N1c2ccccc2CC1C(=O)NCCc1ccc(Cl)cc1 (stereo not given),7.59%
18,CCOc1ccccc1NC(=O)c1nnn(CC(=O)Nc2ccccc2CC)c1N,19.8%
19,COc1ccc(NC(=O)c2[nH]nc3c2CSc2ccccc2-3)c(OC)c1,-7.17%
20,CCC(Cc1ccccc1)NC(=O)Cn1ncc2c3ccccc3n(Cc3ccc(F)cc3)c2c1=O (stereo not given),-12.2%

row,Compound,inhibition
1,CCn1cc2nc(SCc3cccc(F)c3)n(CCc3ccccc3)c(=O)c2n1,-7.87%
2,COc1ccc(Cl)cc1NC(=O)CCCS(=O)(=O)c1nc(-c2ccc(OC)c(OC)c2)cc(C(F)(F)F)n1,-1.48%
3,O=C(O)CCn1ccc2cc(S(=O)(=O)N3CCCCC3)ccc21,-1.3%
4,O=C(NCc1ccccc1Cl)C1CCN(c2ncnc3c2nc2n3CCCCC2)CC1,13.8%
5,COc1ccc(-c2csc(-c3c(N)c(C(=O)c4ccccc4)n4ccccc34)n2)cc1,4.11%
6,Cc1cc(C)n2c(Nc3cccc(C(F)(F)F)c3)c(-c3ccsc3)nc2n1,10.4%
7,Cc1nnc(NC(=O)CSCc2cc(=O)c3ccc(C)c(C)c3[nH]2)s1,-1.45%
8,CC1CCN(S(=O)(=O)c2cn(CC(=O)Nc3ccc(F)cc3)c(=O)c3ccccc23)CC1,6.06%
9,CC(C)CCNC(=O)c1ccc2c(c1)N(C)C(=O)c1ccccc1S2,active: 47.4%
10,CC(C)c1nn2c(=O)cc(COC(=O)c3ccccc3Cl)nc2s1,9.18%
11,CCOc1cc2[nH]c(=O)n(CCCCCC(=O)NC(C)CC)c(=O)c2cc1OCC (stereo not given),-6.14%
12,COc1ccc(N2CCN(Cc3nc(-c4ccc(C)cc4)no3)CC2)cc1,-10.1%
13,O=C(CN1CCN(c2ccccc2)CC1)Nc1ccc(OCc2ccccc2)cc1,active: 55.5%
14,CCCOc1cccc(C2c3c(oc4cc(C)c(C)cc4c3=O)C(=O)N2CCCN2CCOCC2)c1 (stereo not given),-9.79%
15,CSc1cccc(NC(=O)CN(C)S(=O)(=O)c2ccc3c(c2)CCCN3C(C)=O)c1,17.1%
16,CCC(=O)N1CCc2cc(S(=O)(=O)NC(C(=O)NCCc3ccc(C)cc3)C(C)C)ccc21 (stereo not given),0.435%
17,Cc1ccc(-c2n[nH]c3c2C(c2cccs2)N(c2ccc(Cl)cc2)C3=O)cc1 (stereo not given),16%
18,Cc1ccc(C)c(C(=O)CSc2nc3cc(C(=O)NC4CCCC4)ccc3c(=O)n2CC2CCCO2)c1 (stereo not given),-4.34%
19,COCc1cc(C)n(CC(=O)Nc2cccc(C(C)=O)c2)c(=O)c1C#N,11.2%
20,Cc1ccc(-c2nc3cc(NC(=O)c4cc(Br)ccc4Cl)ccc3o2)cc1,-2.45%
